Holding throughout (assay): Primary Screen for Target Class Profiling of Small Molecule Inhibitors of Methyltransferases
In experiment [1] the target is Glycine N-methyltransferase (Homo sapiens) (UniProt Q14749). The settings on record: purified enzyme, MTase-Glo SAH luminescence; measured here: GNMT inhibition; at 40 µM; stronger effect = lower value. The gist of the method:
(§1)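 Each enzyme was reacted with SAM and its substrate, with compounds tested once at 40 uM; SAH formed was read by MTase-Glo luminescence.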

Experiment [2] concerns the target Guanidinoacetate N-methyltransferase (Homo sapiens) (UniProt Q14353). Conditions: purified enzyme, MTase-Glo SAH luminescence; measured here: GAMT inhibition; at 40 µM; stronger effect = lower value. The gist of the method:
as §1

Experiment [3] concerns the target Histamine N-methyltransferase (Homo sapiens) (UniProt P50135). The settings on record: purified enzyme, MTase-Glo SAH luminescence; measured here: HNMT inhibition; at 40 µM; stronger effect = lower value. The gist of the method: as §1
The target of experiment [4] is Nicotinamide N-methyltransferase (Homo sapiens) (UniProt P40261). The settings on record: purified enzyme, MTase-Glo SAH luminescence; measured here: NNMT inhibition; at 40 µM; stronger effect = lower value. The essentials: as §1
Experiment [5] concerns the target Phenylethanolamine N-methyltransferase (Homo sapiens) (UniProt P11086). Conditions: purified enzyme, MTase-Glo SAH luminescence; measured here: PNMT inhibition; at 40 µM; stronger effect = lower value. The gist of the method: as §1

Several values for one entry are separate records, joined by “and”; a condition that tells them apart may be missing. Equal entries are not always repeated. Some of the results follow. Shown are side measurements of this screen, not its main read-out; they come without a call.
% is set by controls: 0 for no effect and ±100 for the full control effect.

`CC(=O)OC1CC(O)C2(C)C(CC(OC(C)=O)C3(C)C2CCC2(C)C(c4ccoc4)C(=O)C4OC423)C1(C)C` (stereo not given): the activity change, negative = inhibition in experiment [1] is 0.307%; in experiment [2] it was 5.07%; in experiment [3] it was 5.91%; in experiment [4], -11.9%; in experiment [5], 3.93%.

In the case of `CCC1c2cccn2-c2ccccc2CN1C(=O)Nc1ccccc1` (stereo not given), the activity change, negative = inhibition in experiment [1] was 0.764%; in experiment [2], 0%; in experiment [3], -2.41%; in experiment [4] it was -0.47%; in experiment [5], 6.26%.

On to `N#Cc1cccc(-c2ccc3n(c2=O)C[C@H]2C[C@@H]3CN(C(=O)c3ccc(F)cc3)C2)c1`, for which the activity change, negative = inhibition in experiment [1] was -6.34%; in experiment [2] it was -5.56%; in experiment [3], -3.75%; in experiment [4] it was -12%; in experiment [5] it was -31.3%.

Take `Cc1cc(CN2CCC3(C2)C(=O)N(C)c2ccccc23)no1` (stereo not given): the activity change, negative = inhibition in experiment [1] is -10.6%; in experiment [2], -4.36%; in experiment [3], -3.64%; in experiment [4], -17%; in experiment [5], -11.4%.

On to `CCCN(CCC)C1Cc2cc(OC)c(OC)cc2C1`, for which the activity change, negative = inhibition in experiment [1] is 8.93%; in experiment [2] it was 14.8%; in experiment [3], 15%; in experiment [4], -1.84%; in experiment [5] it was 1%.

`CCOc1ccc(C2c3cccn3-c3ccccc3CN2C(=O)NCc2ccco2)cc1` (stereo not given): the activity change, negative = inhibition in experiment [1] was -2.44%; in experiment [2], 5.89%; in experiment [3], -0.378%; in experiment [4], -2.89%; in experiment [5] it was 1.72%.

Take `COc1cc(N2CCN(C)CC2)ccc1N`: the activity change, negative = inhibition was -19.1% in experiment [1]; -80.8% in experiment [2]; -20.7% in experiment [3]; -52.5% in experiment [4]; -61.7% in experiment [5].

On to `C[N+]1(C)C2CCC1CC(OC(=O)C(CO)c1ccccc1)C2` (stereo not given), for which the activity change, negative = inhibition in experiment [1] was -3.26% and 2.96%; in experiment [2], 2.43% and 14%; in experiment [3], 2.1% and 10.4%; in experiment [4], -8.09% and -3.38%; in experiment [5], 0.515% and 6.31%.

Take `COc1cccc(NCC(F)Cn2c3ccc(Br)cc3c3cc(Br)ccc32)c1` (stereo not given): the activity change, negative = inhibition in experiment [1] was 2.88%; in experiment [2] it was -27.6%; in experiment [3] it was 2.56%; in experiment [4] it was -37.7%; in experiment [5], -6.16%.

For the compound `CCOc1ccc(NC(=O)N2Cc3ccccc3-n3cccc3C2C(C)C)cc1` (stereo not given), the activity change, negative = inhibition came out at 0.487% in experiment [1]; 0.136% in experiment [2]; 7.5% in experiment [3]; 6.37% in experiment [4]; 7.74% in experiment [5].

Take `C=C[C@H]1[C@H](O[C@@H]2O[C@H](CO)[C@@H](O)[C@H](O)[C@H]2O)OC=C2C(=O)OCC[C@H]21`: the activity change, negative = inhibition was 4.73% in experiment [1]; 9.72% in experiment [2]; 6.85% in experiment [3]; -2.79% in experiment [4]; 7.47% in experiment [5].

Consider `Cc1ccc(C)c(NC(=O)N2Cc3ccccc3-n3cccc3C2c2ccccc2)c1` (stereo not given), for which the activity change, negative = inhibition in experiment [1] was 3.12%; in experiment [2] it was 3.55%; in experiment [3] it was -3.88%; in experiment [4], -2.77%; in experiment [5], 1.89%.

On to `O=C(NC1CCCCC1)OC[C@H]1C[C@@H]2CCN1C[C@@H]2c1cc(C2CCCC2)nc(-c2ccncc2)n1`, for which the activity change, negative = inhibition is -23% in experiment [1]; -14.7% in experiment [2]; -36.9% in experiment [3]; -44.1% in experiment [4]; -4.42% in experiment [5].

As to `Cc1ccc(NC(=O)N2Cc3ccccc3-n3cccc3C2C(C)C)cc1F` (stereo not given), the activity change, negative = inhibition is 3.71% in experiment [1]; 2.27% in experiment [2]; 7.98% in experiment [3]; 8.5% in experiment [4]; 10.9% in experiment [5].

Consider `COCC1CN(C)CC12CCN(C(=O)c1cncc(C)c1)CC2` (stereo not given), for which the activity change, negative = inhibition in experiment [1] is -1.89%; in experiment [2] it was -0.107%; in experiment [3] it was -4.5%; in experiment [4] it was 2.96%; in experiment [5], 4.55%.

For `CCOc1ccccc1NC(=O)N1Cc2ccccc2-n2cccc2C1C` (stereo not given), the activity change, negative = inhibition in experiment [1] was -4.53%; in experiment [2], 1.58%; in experiment [3], 7.36%; in experiment [4], 6.36%; in experiment [5], 9.55%.

Consider `N#CC(C#N)=Cc1ccc(O)c(O)c1`, for which the activity change, negative = inhibition was -37.2% in experiment [1]; 10.4% in experiment [2]; 0.475% in experiment [3]; -4% in experiment [4]; 7.68% in experiment [5].

Consider `CC(=O)O[C@@H]1[C@H]2CC[C@H]3[C@@](C)(O)[C@@H]4C[C@H](O)C(C)(C)[C@@]4(O)[C@H](O)C[C@@]13C[C@@]2(C)O`, for which the activity change, negative = inhibition in experiment [1] is 0%; in experiment [2], 2%; in experiment [3], 7.04%; in experiment [4], -8.33%; in experiment [5], 0.198%.

In the case of `CC(C)(C)c1cc(C(C)(C)C)c2c(c1)C(O)(C(F)(F)F)C(=O)O2` (stereo not given), the activity change, negative = inhibition in experiment [1] was -6.35%; in experiment [2], -22.4%; in experiment [3], -3.42%; in experiment [4], -36.4%; in experiment [5] it was -0.859%.

Regarding `COc1ccc2[nH]c3c(c2c1)CCNC3`, the activity change, negative = inhibition was -5.32% in experiment [1]; -5.1% in experiment [2]; -37% in experiment [3]; -15.7% in experiment [4]; -9.39% in experiment [5].

On to `COc1ccc(S(=O)(=O)N2C[C@@H]3C[C@H](C2)c2c(-c4cccs4)ccc(=O)n2C3)cc1`, for which the activity change, negative = inhibition in experiment [1] is -6.7%; in experiment [2], -9.17%; in experiment [3], -5.21%; in experiment [4] it was -17%; in experiment [5], 7.59%.

For `Cc1cccc(C)c1NC(=O)CN1CCCC1=O`, the activity change, negative = inhibition in experiment [1] worked out at 7.15%; in experiment [2] it was 12.8%; in experiment [3], 5.11%; in experiment [4] it was 0.885%; in experiment [5], 10.9%.

Turning to `C=C1C(=O)OC2/C=C(\COO)CC/C=C(\COC(C)=O)CC(OC(=O)C(C)CC)C12` (stereo not given), the activity change, negative = inhibition in experiment [1] was 4.1%; in experiment [2], 5.64%; in experiment [3] it was 6.01%; in experiment [4] it was -6.35%; in experiment [5] it was 6.91%.

Take `COc1ccc(C2c3cccn3-c3ccccc3CN2C(=O)Nc2ccc(OC)cc2OC)cc1` (stereo not given): the activity change, negative = inhibition in experiment [1] is 4%; in experiment [2], 2.27%; in experiment [3] it was -6.44%; in experiment [4], -3.7%; in experiment [5] it was 0.728%.

Take `CCN1C[C@]2(COC)CC[C@H](O)[C@@]34C5C[C@@H]6[C@@H](OC)C[C@@](OC(C)=O)(C5[C@@H]6OC(C)=O)[C@H]([C@H](OC)C23)[C@@H]14` (stereo not given in full): the activity change, negative = inhibition in experiment [1] was -5.51%; in experiment [2], -12.4%; in experiment [3], -3.78%; in experiment [4] it was -18.2%; in experiment [5] it was -5.55%.

For `O=C(Nc1ccc2n(c1=O)C[C@H]1C[C@@H]2CN(c2ncccn2)C1)c1ccccc1`, the activity change, negative = inhibition is -7.22% in experiment [1]; -8.92% in experiment [2]; -12.5% in experiment [3]; -11.2% in experiment [4]; -8.86% in experiment [5].

For `NC(=O)CI`, the activity change, negative = inhibition was -53.9% in experiment [1]; 14.4% in experiment [2]; 9.56% in experiment [3]; 1.17% in experiment [4]; 3.25% in experiment [5].

On to `CCCSc1ncc(CN2CC[C@H]3CNC[C@H]32)cn1`, for which the activity change, negative = inhibition in experiment [1] was -2.13%; in experiment [2] it was 0.734%; in experiment [3] it was -2.73%; in experiment [4], -3.14%; in experiment [5], -4.57%.

In the case of `COc1cccc(CNC(=O)N2Cc3ccccc3-n3cccc3C2c2ccc(SC)cc2)c1` (stereo not given), the activity change, negative = inhibition is 1.3% in experiment [1]; 0% in experiment [2]; 1.41% in experiment [3]; -0.954% in experiment [4]; 3.87% in experiment [5].

(Values after PubChem BioAssay AID1745853 (National Center for Advancing Translational Sciences (NCATS), 2022).)
